According to PubChem BioAssay AID889 (National Center for Advancing Translational Sciences (NCATS), 2007):
Screen size: about 75,000 compounds; about 15 (0.02%) were called active. The inconclusive results got no clear call from the source; some entries with a clear call stand among them for comparison. Calls come from the whole dose curve; as a rule, active = well fitted inhibition curve with a large enough effect in the main read-out, with a control signal flat (not every such curve was filed as active); inconclusive = small, poorly fitted or top-dose-only effect, or a change in a side signal; inactive = flat fitted curve, though single readings scatter. A potency beside an inconclusive call is a rough fit, not a confirmed value. A note “side channel” means that the fit belongs to a control or component signal, not to the main read-out.

Target: Caspase-7 (Homo sapiens) (UniProt P55210)
Experiment: qHTS Assay for Allosteric/Competitive Inhibitors of Caspase-7; for activity change, negative = inhibition: % of control where 0% means no effect
Details: recombinant caspase-7, Ac-DEVD-AFC fluorescence rate; activity change, negative = inhibition: at 57.5 µM (top of the series) unless noted
Potency is the fitted concentration of half-maximal effect; tags give direction and shape of the fitted curve or compound fluorescence and quenching.

Chain of UniProt P55210 (P55210 whole entry, looked up): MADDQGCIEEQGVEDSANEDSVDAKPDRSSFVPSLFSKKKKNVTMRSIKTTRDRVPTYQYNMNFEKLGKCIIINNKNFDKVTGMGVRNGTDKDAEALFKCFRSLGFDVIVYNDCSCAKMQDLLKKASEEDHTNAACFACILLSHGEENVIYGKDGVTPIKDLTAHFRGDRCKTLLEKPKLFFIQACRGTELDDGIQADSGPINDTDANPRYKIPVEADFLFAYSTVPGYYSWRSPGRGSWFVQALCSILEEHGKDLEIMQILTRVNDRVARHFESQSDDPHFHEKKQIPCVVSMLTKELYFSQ

Potency, inactive:
Cn1ccc2cc3c(cc21)CCN3C(=O)Nc1cccnc1

Potency, inconclusive:
Cc1ccc(NC(=O)CSCC(N)=O)cc1C 20 µM [inhibitor, partial curve]
COc1ccc2cc(C(c3nnnn3C(C)(C)C)N3CCc4ccccc4C3)c(=O)[nH]c2c1 (centres undefined) 20 µM [fluorescent, side channel, partial curve]
Nc1ccc2c3c(cccc13)C(=O)NC2=O 7.94 µM [fluorescent, side channel, full curve]
COc1ccc(-c2nc3cnc(N4CCN(C)CC4)nc3n(-c3ccc(OC)cc3)c2=O)cc1 12.6 µM [fluorescent, side channel, partial curve]
CCc1nnc(NC(=O)CCC(=O)N2CCN(CCOc3ccc(C)cc3)CC2)s1 3.16 µM [fluorescent, side channel, full curve]
COCCn1c(=O)c(C)nc2cnc(N(C)C)nc21 25.1 µM [fluorescent, partial curve]
O=S(=O)(Nc1nc2ccccc2nc1Nc1ccc2c(c1)OCCO2)c1cccs1 15.8 µM [inhibitor, partial curve]
CN1CCN(c2ncc3nc(-c4cccc(C#N)c4)c(=O)n(Cc4ccc(F)cc4)c3n2)CC1 12.6 µM [fluorescent, side channel, partial curve]
COc1cc(/C=C/C(=O)c2cccs2)cc(OC)c1OC 39.8 µM [inhibitor, single point]
CCOC(=O)COn1c(=O)c(-c2cccs2)[n+]([O-])c2ccccc21 31.6 µM [inhibitor, single point]
COc1cccc(Cn2c(=O)c(-c3ccc(Cl)cc3)nc3cnc(N4CCNCC4)nc32)c1 15.8 µM [fluorescent, side channel, partial curve]
CC1CCCN(c2oc(-c3cccc4ccccc34)nc2C#N)C1 (centres undefined) 3.16 µM [inhibitor, single point]
COc1cccc(Cn2c(=O)c(-c3cccc(C#N)c3)nc3cnc(N4CCOCC4)nc32)c1 3.98 µM [fluorescent, side channel, partial curve]
Cc1ccc2c(c1)c1ncnc(N3CCc4ccccc4C3)c1n2C 31.6 µM [inhibitor, single point]
COc1ccc2c(c1)S/C(=C\C(=O)c1ccncc1)N2C 31.6 µM [inhibitor, single point]
COc1ccc(CCn2c(=N)c(C(=O)NCc3ccco3)cc3c(=O)n4cccc(C)c4nc32)cc1 15.8 µM [inhibitor, partial curve]
Cn1cc(-c2nc3cnc(N4CCNCC4)nc3n(CCC#N)c2=O)c2ccccc21 15.8 µM [inhibitor, partial curve]
CC(C)n1c(=NC(=O)c2ccco2)c(C#N)cc2c(=O)n3ccccc3cc21 2.51 µM [fluorescent, side channel, full curve]
O=C(O)CCCC(=O)N1CCN(c2nc(-c3ccccc3)c3ccccc3n2)CC1 10 µM [fluorescent, side channel, partial curve]
CCCn1c(=NC(=O)c2ccncc2)c(C(=O)OCC)cc2c(=O)n3cccc(C)c3nc21 15.8 µM [fluorescent, partial curve]
Cn1c(C(=O)N2CCN(C(=O)c3ccco3)CC2)cc2c(=O)n3ccccc3nc21 15.8 µM [fluorescent, side channel, partial curve]
Cc1ccc(S(=O)(=O)N2CCOCC2)cc1C(=O)N1C(=O)c2cccc(N)c2C1=O 12.6 µM [fluorescent, side channel, partial curve]
Cn1c(=O)c(-c2cc(F)cc(F)c2)nc2cnc(N3CCNCC3)nc21 10 µM [fluorescent, side channel, partial curve]
CCC(=O)Nc1c(C#N)c2nc3ccccc3nc2n1-c1ccccc1C 12.6 µM [fluorescent, side channel, partial curve]
CC1CCCCN1C(=O)c1cnn2c(C(F)(F)F)cc(-c3ccco3)nc12 (centres undefined) 15.8 µM [inhibitor, partial curve]
CCNc1ncc2nc(-c3cc(F)cc(F)c3)c(=O)n(C3CC3)c2n1 1.58 µM [fluorescent, side channel, full curve]
CN1CCN(c2ncc3nc(-c4cc(F)cc(F)c4)c(=O)n(CCC#N)c3n2)CC1 7.94 µM [fluorescent, side channel, partial curve]
COc1ccc(C2C=C(c3ccccc3)Nc3nc(CCCO)nn32)cc1 (centres undefined) 25.1 µM [fluorescent, side channel, partial curve]
CN(C)c1ncc2nc(-c3cc(F)cc(F)c3)c(=O)n(C[C@H]3CCCO3)c2n1 1 µM [fluorescent, side channel, full curve]
CCN(C(=O)c1coc(=O)c(Br)c1)c1ccc2c(c1)OCO2 20 µM [fluorescent, side channel, partial curve]
Cc1ccc(-c2cn3nc(C)c(C)nc3n2)cc1 2.51 µM [fluorescent, side channel, full curve]
O=C(Nc1ccc(F)cc1)N1CCC(c2nc3c(nnn3Cc3cccc(Cl)c3)c(=O)[nH]2)CC1 25.1 µM [inhibitor, single point]
COC(=O)c1c(NC(=O)c2cccs2)sc2c1CCCC2 20 µM [fluorescent, side channel, single point]
COc1ccc2[nH]c(=O)c(CNC3CCCCC3)cc2c1 15.8 µM [fluorescent, partial curve]
CN1CCN(c2ncc3nc(-c4ccc(F)cc4)c(=O)n(C4CC4)c3n2)CC1 7.94 µM [fluorescent, side channel, partial curve]
CNc1ccccc1C(=O)N1CCc2c([nH]c3ccccc23)C1=O 15.8 µM [fluorescent, partial curve]
CN1CCN(c2ncc3nc(CCc4ccccc4)c(=O)n(C4CC4)c3n2)CC1 15.8 µM [fluorescent, side channel, partial curve]
N#CCCn1c(=O)c(-c2ccc(F)cc2)nc2cnc(Oc3ccccc3)nc21 31.6 µM [fluorescent, single point]
COCc1cc(C)nc(SCC(=O)Nc2cccc3cccnc23)c1C#N 15.8 µM [inhibitor, partial curve]
COc1cccc(Cn2c(=O)c(-c3cn(C)c4ccccc34)nc3cnc(N4CCOCC4)nc32)c1 2.51 µM [inhibitor, full curve]

Potency, active:
N#Cc1sc2nc(-c3ccccc3)cc(-c3ccco3)c2c1N 25.1 µM

Activity change, negative = inhibition, inactive:
O=C(O)CSc1nnc(-c2ccccc2O)n1Cc1ccccc1 -2.56%
CCOC(=O)c1c(C)[nH]c(C)c1-c1ccccc1OC 0.299%
O=C(c1cc2nc(-c3ccco3)cc(C(F)(F)F)n2n1)N1CCN(c2ccccc2)CC1 -18.3%
Cc1ccc(NCc2nc3ccccc3n2C)cc1 -4.78%
COc1cccc(Cn2c(=O)c(CCc3ccccc3)nc3cnc(N4CCOCC4)nc32)c1 -13.5%
Cc1csc(SCc2nnc(-c3ccccc3Br)o2)n1 -1.57%
Oc1ccc(N2CCN(C(c3cccnc3)c3nnnn3Cc3ccccc3)CC2)cc1 (centres undefined) 2.79%
Cc1cccc2cc(C#N)c(SCC(=O)N3CC(=O)Nc4ccccc43)nc12 -17.5%
Cc1cc2c(c(=O)o1)[C@@H](O)[C@H]1O[C@@H]1C2=O -0.0886% [at 11.5 µM]
S=c1[nH]nc(CSc2nc3ccccc3s2)o1 -0.645%
CC(C)Oc1cccc(-c2cc(C(=O)N3CCN(S(C)(=O)=O)CC3)c3ccccc3n2)c1 -4.71%
CCCCCCCCCCCC(CC1OC(=O)C1CCCCCC)OC(=O)C(CC(C)C)NC=O (centres undefined) 0.7%
CCOC(=O)Cn1c(-c2nonc2NC(=O)c2ccccc2F)nc2ccccc21 -1.13%
COc1ccc(CNc2ncncc2-c2cccc(NS(C)(=O)=O)c2)c(OC)c1 -5.03%
COc1ccc(COC(=O)N/N=C2/C[C@@H](O)[C@@H](O)[C@@H]3[C@@H]4C(=O)N(Cc5ccccc5)C(=O)[C@H]4CC[C@@H]23)cc1 -0.111% [at 11.5 µM]
CCOc1ccccc1NC(=O)CSc1nc2c(c(=O)n1C)SC(C)C2 (centres undefined) -1.21%
COCC(=O)N1CCC2(CC1)CCN(c1ccncc1)CC2 -2.72%
COC(=O)C1=C(C)NC(C)=C(C(=O)OC)C1C(=O)OCCN1C(=O)c2ccccc2C1=O -0.49%
COCCNc1nc(-c2ccccc2C)nc2ccccc12 -0.871%
CN1[C@@H](c2ccccc2)CC(=NO)C[C@H]1c1ccccc1 -2.09% [at 11.5 µM]
O=C(CSc1nc2ccccc2c(=O)n1Cc1ccco1)NCc1ccccc1 3.07%
COc1ccc(Oc2ncc3nc(-c4cccc(C#N)c4)c(=O)n(Cc4cccc(OC)c4)c3n2)cc1 -28.9%
